Laboratory results published in the BET-seq Pho4 binding data (Le et al. 2018).
The other results are listed elsewhere or left out. Values were computed here from the reads of four pooled replicates and scatter widely.

target: T1, Pho4 (S. cerevisiae) (UniProt P07270); assay: relative binding free energy (BET-seq); higher = weaker binding; settings: reference: library average
T1 sequence: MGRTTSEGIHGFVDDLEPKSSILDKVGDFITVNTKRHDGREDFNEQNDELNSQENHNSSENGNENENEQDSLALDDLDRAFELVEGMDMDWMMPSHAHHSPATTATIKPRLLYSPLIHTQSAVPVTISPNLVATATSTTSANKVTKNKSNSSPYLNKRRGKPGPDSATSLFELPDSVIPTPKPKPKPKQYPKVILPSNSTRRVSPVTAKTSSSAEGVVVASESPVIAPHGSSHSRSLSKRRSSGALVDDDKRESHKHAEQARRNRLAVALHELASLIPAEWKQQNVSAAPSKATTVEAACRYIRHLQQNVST

| Sequence | relative binding free energy [kcal/mol] |
| --- | --- |
| GTCGTCACGTGAGTTT | 0.17 |
| AGTGTCACGTGAGTTC | 0.27 |
| TTTTCCACGTGGTAGA | 0.08 |
| CGGGTCACGTGCTGCG | -0.02 |
| TGTGTCACGTGGTCGG | 0.03 |
| GTTGGCACGTGTAGTA | 0.04 |
| GACTGCACGTGTGAGT | 0.17 |
| CTCGTCACGTGGGATG | -0.01 |
| TGTTACACGTGATATT | 0.31 |
| GGGCGCACGTGTACGT | 0.04 |
| CAGGACACGTGGGTTT | -0.06 |
| TGTACCACGTGGTGAT | -0.14 |
| TCTTACACGTGGAGGT | 0.16 |
| CGAGTCACGTGTGTAT | 0.18 |
| TGTGTCACGTGTAGTA | 0.13 |
| CGTTCCACGTGGGTTG | -0.16 |
| TGTAGCACGTGCGTTG | -0.17 |
| TGTTGCACGTGACAGG | 0.01 |
| GACAGCACGTGGGTTG | -0.04 |
| GGTGCCACGTGGCGGT | 0 |
| TTATACACGTGGAATT | 0.07 |
| GTGGTCACGTGTACAT | 0.16 |
| CGGGACACGTGCTTGG | -0.08 |
| TGCAGCACGTGGCTTT | -0.13 |
| GCGTTCACGTGTCTGT | 0.46 |

| Sequence | relative binding free energy [kcal/mol] |
| --- | --- |
| GACGTCACGTGGATTT | 0.28 |
| ATGTACACGTGGTGTT | -0.09 |
| TGGGGCACGTGCGTTC | -0.26 |
| GGTGTCACGTGGTAGC | 0.21 |
| GGGTTCACGTGTTTCT | 0.46 |
| GGGGCCACGTGGATGA | -0.09 |
| TCGGTCACGTGGGCTG | 0.08 |
| TAGAACACGTGTTAAT | 0.18 |
| TACGTCACGTGGTTTG | -0.01 |
| CGGTTCACGTGTGTAC | 0.31 |
| TGTAGCACGTGCAGGT | -0.22 |
| GTGGTCACGTGATGCG | 0.31 |
| CAAGTCACGTGATGGT | 0.37 |
| TAGATCACGTGGAATT | 0.22 |
| TTTTTCACGTGCCTTC | 0.33 |
| GGGTGCACGTGGTCTT | 0.01 |
| TTAGGCACGTGTTGGA | -0.18 |
| TTAATCACGTGGCATG | 0.21 |
| GGTGGCACGTGCGTTG | -0.08 |
| GTGCTCACGTGGTGTA | 0.18 |
| ATGGTCACGTGGAATC | 0.38 |
| TATGGCACGTGATTCG | 0.05 |
| GTTTTCACGTGGCTTT | 0.39 |
| GTTATCACGTGGGTAC | -0.06 |
| ACTGACACGTGGGGTT | -0.12 |

| Sequence | relative binding free energy [kcal/mol] |
| --- | --- |
| AGTGTCACGTGAGTAA | 0.27 |
| CATGGCACGTGGATGT | -0.01 |
| GGGTCCACGTGGTTCG | 0 |
| CGTAGCACGTGGTTTA | -0.22 |
| GTTTACACGTGTGGGT | 0.24 |
| AACTTCACGTGGGGGT | 0.04 |
| CAGGTCACGTGTGTAA | 0.1 |
| GAGATCACGTGGTGTT | 0.17 |
| TGAGTCACGTGTTCTT | 0.2 |
| GTTTGCACGTGGCTAG | 0 |
| CAGGGCACGTGTATTT | -0.04 |
| TCGTTCACGTGTCGTT | 0.24 |
| GATATCACGTGGGTGT | 0.16 |
| GGTTGCACGTGCTCGA | 0.14 |
| CTGTTCACGTGGTTCT | 0.23 |
| CGTTTCACGTGTATTA | 0.21 |
| TAAGCCACGTGGTAGT | -0.15 |
| GGAGACACGTGGGTAT | -0.08 |
| TGCGGCACGTGTTGGT | 0 |
| GGTGCCACGTGGGGAC | -0.31 |
| CTAATCACGTGTGAGT | 0.3 |
| TTTTTCACGTGCGGCT | 0.28 |
| GGCCGCACGTGGTAGT | -0.15 |
| AACTGCACGTGTGTTT | 0.17 |
| TGAGTCACGTGTATCA | 0.11 |

| Sequence | relative binding free energy [kcal/mol] |
| --- | --- |
| AATTGCACGTGGGAGA | -0.09 |
| TGCGTCACGTGGACTG | 0.06 |
| TATTACACGTGTTTCG | 0.02 |
| TGGTCCACGTGGTGCT | 0 |
| TAAGTCACGTGATTCG | 0.13 |
| AGGTCCACGTGGTGAT | 0.09 |
| GTGGACACGTGTGATG | 0.11 |
| TCCGGCACGTGTGAGG | 0 |
| TTTAGCACGTGTCTAT | -0.11 |
| GGTGGCACGTGGGGTG | -0.14 |
| TGTTACACGTGGTGGG | 0.12 |
| GTATTCACGTGATAAT | 0.32 |
| GGAGGCACGTGTGATA | -0.09 |
| AGGTACACGTGAAAGG | 0.21 |
| GTGATCACGTGGGCGG | -0.02 |
| CGGGGCACGTGTATGA | -0.22 |
| GGTCTCACGTGATGTG | 0.26 |
| TTGTTCACGTGATAAT | 0.33 |
| GTGGTCACGTGAGATC | 0.36 |
| AAAGGCACGTGCGAGG | -0.14 |
| TTGATCACGTGCAGGT | 0.13 |
| GTTAACACGTGTAGGA | 0 |
| CATTGCACGTGTAGTG | 0.05 |
| CGGGTCACGTGTTTAT | 0.2 |
| GTAACCACGTGGTGGT | -0.04 |

| Sequence | relative binding free energy [kcal/mol] |
| --- | --- |
| TAAGGCACGTGATGTA | -0.08 |
| TAAAACACGTGGTGCG | 0.01 |
| GTAGTCACGTGTGGGT | 0.23 |
| TCAGTCACGTGGGTGA | -0.29 |
| TTGGTCACGTGAAGGC | 0.32 |
| TTTTGCACGTGGTATT | -0.11 |
| ATGCACACGTGTGTAG | 0.2 |
| GCGGGCACGTGTGCAG | -0.09 |
| TATGTCACGTGTTGAG | 0 |
| TTCTGCACGTGTGTTG | 0.09 |
| CTGTGCACGTGGCGAG | -0.08 |
| AAAGACACGTGGGGAT | -0.03 |
| GTGCGCACGTGTTTAG | -0.04 |
| GGGTGCACGTGGGTCC | -0.12 |
| CTTTACACGTGTTAGG | 0.19 |
| TAGTACACGTGCTTGA | 0.15 |
| AGACTCACGTGGTAGT | 0.28 |
| GGGGCCACGTGAGAGG | 0.12 |
| GTTTGCACGTGGGCGC | -0.09 |
| AGGGGCACGTGCATAT | -0.18 |
| TGATACACGTGTGCGT | 0.08 |
| AGTTGCACGTGTGTCT | 0.05 |
| ATGGTCACGTGGTGGG | 0.1 |
| AATGGCACGTGAGGTA | 0.12 |
| GGATGCACGTGGTCAT | -0.12 |

| Sequence | relative binding free energy [kcal/mol] |
| --- | --- |
| TATGGCACGTGGCCTG | -0.22 |
| GAGTACACGTGTTGGG | 0.21 |
| GATGACACGTGATTTG | 0.3 |
| AGATTCACGTGGGCGT | 0.02 |
| GTCTGCACGTGGGGAC | 0.05 |
| GGTGACACGTGCAGTT | 0.16 |
| AGGGGCACGTGTAGAT | 0.2 |
| AGAGGCACGTGTGGAT | -0.02 |
| TGATTCACGTGCGTTA | 0.28 |
| TTGTTCACGTGACGTA | 0.27 |
| TACGCCACGTGTTGGG | -0.1 |
| GGTTGCACGTGTGATA | 0.17 |
| TAACGCACGTGATGGT | -0.04 |
| GTATTCACGTGGGCGG | 0.19 |
| TACTTCACGTGGTGTC | 0.22 |
| TGTGTCACGTGTCATC | 0.09 |
| AGCGTCACGTGAGGGA | 0.07 |
| TTACTCACGTGTCGTG | 0.27 |
| TCAGGCACGTGTATGT | -0.03 |
| TTATGCACGTGGTAAT | 0 |
| AAGGGCACGTGAGAGG | 0.17 |
